The list shows a part of the results.
Experiments:
Experiment in all cases: glycan array binding signal (z-score within array); higher = stronger binding
Settings in all cases: glycan notation: IUPAC condensed, linker removed
Fuc(a1-4)GlcNAc = molecular target: Fuc(a1-4)GlcNAc
How it was run: (§1)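 Glycan array data came from 3228 arrays in the Consortium for Functional Glycomics database, and only arrays with an available protein sequence were kept. Glycan names were put into IUPAC-condensed notation, and columns mapping to the same glycan were averaged. The binding signal is a within-array Z-score, averaged across arrays of one protein sequence run at different concentrations or buffers and across linkers. A negative Z-score can be read as non-binding.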

Fuc(b1-3)GlcNAc = molecular target: Fuc(b1-3)GlcNAc
How it was run: as §1

Gal(a1-2)Gal = molecular target: Gal(a1-2)Gal
How it was run: as §1

Gal(a1-3)Gal = molecular target: Gal(a1-3)Gal
How it was run: as §1

Gal(a1-3)Gal(b1-3)GlcNAc = molecular target: Gal(a1-3)Gal(b1-3)GlcNAc
How it was run: as §1

[1] = molecular target: Gal(a1-3)Gal(b1-3)GlcNAc(b1-2)Man
How it was run: as §1

[2] = molecular target: Gal(a1-3)Gal(b1-3)GlcNAc(b1-2)Man(a1-3)[Gal(a1-3)Gal(b1-3)GlcNAc(b1-2)Man(a1-6)]Man(b1-4)GlcNAc(b1-4)GlcNAc
How it was run: as §1

[3] = molecular target: Gal(a1-3)Gal(b1-3)GlcNAc(b1-3)GalNAc
How it was run: as §1

[4] = molecular target: Gal(a1-3)Gal(b1-3)GlcNAc(b1-6)GalNAc
How it was run: as §1

[5] = molecular target: Gal(a1-3)Gal(b1-3)[Fuc(a1-4)]GlcNAc(b1-2)Man(a1-3)[Gal(a1-3)Gal(b1-3)[Fuc(a1-4)]GlcNAc(b1-2)Man(a1-6)]Man(b1-4)GlcNAc(b1-4)GlcNAc
How it was run: as §1

Gal(a1-3)Gal(b1-4)Glc = molecular target: Gal(a1-3)Gal(b1-4)Glc
How it was run: as §1

Gal(a1-3)Gal(b1-4)GlcNAc = molecular target: Gal(a1-3)Gal(b1-4)GlcNAc
How it was run: as §1

[6] = molecular target: Gal(a1-3)Gal(b1-4)GlcNAc(b1-2)Man
How it was run: as §1

[7] = molecular target: Gal(a1-3)Gal(b1-4)GlcNAc(b1-2)Man(a1-3)[Gal(a1-3)Gal(b1-4)GlcNAc(b1-2)Man(a1-6)]Man(b1-4)GlcNAc(b1-4)GlcNAc
How it was run: as §1

[8] = molecular target: Gal(a1-3)Gal(b1-4)GlcNAc(b1-3)GalNAc
How it was run: as §1

[9] = molecular target: Gal(a1-3)Gal(b1-4)GlcNAc(b1-6)GalNAc
How it was run: as §1

[10] = molecular target: Gal(a1-3)Gal(b1-4)[Fuc(a1-3)]GlcNAc
How it was run: as §1

[11] = molecular target: Gal(a1-3)Gal(b1-4)[Fuc(a1-3)]GlcNAc(b1-2)Man(a1-3)[Gal(a1-3)Gal(b1-4)[Fuc(a1-3)]GlcNAc(b1-2)Man(a1-6)]Man(b1-4)GlcNAc(b1-4)GlcNAc
How it was run: as §1

Gal(a1-3)GalNAc = molecular target: Gal(a1-3)GalNAc
How it was run: as §1

[12] = molecular target: Gal(a1-3)[Gal(a1-4)]Gal(b1-4)GlcNAc
How it was run: as §1

[13] = molecular target: Gal(a1-4)Gal(b1-3)GlcNAc(b1-2)Man(a1-3)[Gal(a1-4)Gal(b1-3)GlcNAc(b1-2)Man(a1-6)]Man(b1-4)GlcNAc(b1-4)GlcNAc
How it was run: as §1

Gal(a1-4)Gal(b1-4)Glc = molecular target: Gal(a1-4)Gal(b1-4)Glc
How it was run: as §1

Gal(a1-4)Gal(b1-4)GlcNAc = molecular target: Gal(a1-4)Gal(b1-4)GlcNAc
How it was run: as §1

[14] = molecular target: Gal(a1-4)Gal(b1-4)GlcNAc(b1-2)Man(a1-3)[Gal(a1-4)Gal(b1-4)GlcNAc(b1-2)Man(a1-6)]Man(b1-4)GlcNAc(b1-4)GlcNAc
How it was run: as §1

[15] = molecular target: Gal(a1-4)Gal(b1-4)GlcNAc(b1-3)Gal(b1-4)Glc
How it was run: as §1

Gal(a1-4)GlcNAc = molecular target: Gal(a1-4)GlcNAc
How it was run: as §1

Gal(a1-6)Glc = molecular target: Gal(a1-6)Glc
How it was run: as §1

Gal(b1-2)Gal = molecular target: Gal(b1-2)Gal
How it was run: as §1

Gal(b1-3)Gal = molecular target: Gal(b1-3)Gal
How it was run: as §1

Gal(b1-3)Gal(b1-4)GlcNAc = molecular target: Gal(b1-3)Gal(b1-4)GlcNAc
How it was run: as §1

Gal(b1-3)GalNAc = molecular target: Gal(b1-3)GalNAc
How it was run: as §1

[16] = molecular target: Gal(b1-3)GalNAc(a1-3)[Fuc(a1-2)]Gal(b1-4)Glc
How it was run: as §1

[17] = molecular target: Gal(b1-3)GalNAc(a1-3)[Fuc(a1-2)]Gal(b1-4)GlcNAc
How it was run: as §1

Gal(b1-3)GalNAc(b1-3)Gal = molecular target: Gal(b1-3)GalNAc(b1-3)Gal
How it was run: as §1

[18] = molecular target: Gal(b1-3)GalNAc(b1-3)Gal(a1-4)Gal(b1-4)Glc
How it was run: as §1

[19] = molecular target: Gal(b1-3)GalNAc(b1-4)Gal(b1-4)Glc
How it was run: as §1

[20] = molecular target: Gal(b1-3)GalNAc(b1-4)[Neu5Ac(a2-3)]Gal(b1-4)Glc
How it was run: as §1

Gal(b1-3)GlcNAc = molecular target: Gal(b1-3)GlcNAc
How it was run: as §1

B1: LCA (Lens culinaris), P02870 (protein)
chain: MASLQTQMISFYLIFLSILLTTIFFFKVNSTETTSFSITKFSPDQKNLIFQGDGYTTKGKLTLTKAVKSTVGRALYSTPIHIWDRDTGNVANFVTSFTFVIDAPSSYNVADEFTFFIAPVDTKPQTGGGYLGVFNSKEYDKTSQTVAVEFDTFYNAAWDPSNKERHIGIDVNSIKSVNTKSWNLQNGERANVVIAFNAATNVLTVTLTYPNSLEEENVTSYTLNEVVPLKDVVPEWVRIGFSATTGAEFAAHEVHSWSFHSELGGTSSSKQAADA
Question: How did the “glycan array binding signal (z-score)” value (Fuc(a1-4)GlcNAc) turn out when B1 was run?
Answer: -0.198

Question: And the “glycan array binding signal (z-score)” value (Fuc(b1-3)GlcNAc)?
Answer: -0.186

Question: And the “glycan array binding signal (z-score)” value (Gal(a1-2)Gal)?
Answer: -0.221

Question: What about the “glycan array binding signal (z-score)” value (Gal(a1-3)Gal) of the same binder?
Answer: -0.221

Question: And the “glycan array binding signal (z-score)” value (Gal(a1-3)Gal(b1-3)GlcNAc)?
Answer: -0.21

Question: And the “glycan array binding signal (z-score)” value [1]?
Answer: -0.089

Question: What about the “glycan array binding signal (z-score)” value [2] of the same binder?
Answer: -0.202

Question: What about the “glycan array binding signal (z-score)” value [3] of the same binder?
Answer: -0.227

Question: What about the “glycan array binding signal (z-score)” value [4] of the same binder?
Answer: -0.193

Question: And the “glycan array binding signal (z-score)” value [5]?
Answer: -0.319

Question: And the “glycan array binding signal (z-score)” value (Gal(a1-3)Gal(b1-4)Glc)?
Answer: -0.218

Question: What about the “glycan array binding signal (z-score)” value (Gal(a1-3)Gal(b1-4)GlcNAc) of the same binder?
Answer: -0.22

Question: What about the “glycan array binding signal (z-score)” value [6] of the same binder?
Answer: -0.26

Question: What about the “glycan array binding signal (z-score)” value [7] of the same binder?
Answer: -0.078

Question: And the “glycan array binding signal (z-score)” value [8]?
Answer: -0.241

Question: What about the “glycan array binding signal (z-score)” value [9] of the same binder?
Answer: -0.219

Question: And the “glycan array binding signal (z-score)” value [10]?
Answer: -0.224

Question: And the “glycan array binding signal (z-score)” value [11]?
Answer: -0.194

Question: And the “glycan array binding signal (z-score)” value (Gal(a1-3)GalNAc)?
Answer: -0.159

Question: What about the “glycan array binding signal (z-score)” value [12] of the same binder?
Answer: -0.205

Question: What about the “glycan array binding signal (z-score)” value [13] of the same binder?
Answer: 0.099

Question: What about the “glycan array binding signal (z-score)” value (Gal(a1-4)Gal(b1-4)Glc) of the same binder?
Answer: -0.176

Question: And the “glycan array binding signal (z-score)” value (Gal(a1-4)Gal(b1-4)GlcNAc)?
Answer: -0.172

Question: What about the “glycan array binding signal (z-score)” value [14] of the same binder?
Answer: -0.125

Question: What about the “glycan array binding signal (z-score)” value [15] of the same binder?
Answer: -0.221

Question: And the “glycan array binding signal (z-score)” value (Gal(a1-4)GlcNAc)?
Answer: -0.239

Question: And the “glycan array binding signal (z-score)” value (Gal(a1-6)Glc)?
Answer: -0.228

Question: What about the “glycan array binding signal (z-score)” value (Gal(b1-2)Gal) of the same binder?
Answer: -0.167

Question: What about the “glycan array binding signal (z-score)” value (Gal(b1-3)Gal) of the same binder?
Answer: -0.252

Question: And the “glycan array binding signal (z-score)” value (Gal(b1-3)Gal(b1-4)GlcNAc)?
Answer: -0.245

Question: And the “glycan array binding signal (z-score)” value (Gal(b1-3)GalNAc)?
Answer: -0.232

Question: And the “glycan array binding signal (z-score)” value [16]?
Answer: -0.265

Question: What about the “glycan array binding signal (z-score)” value [17] of the same binder?
Answer: -0.255

Question: And the “glycan array binding signal (z-score)” value (Gal(b1-3)GalNAc(b1-3)Gal)?
Answer: -0.196

Question: And the “glycan array binding signal (z-score)” value [18]?
Answer: -0.209

Question: What about the “glycan array binding signal (z-score)” value [19] of the same binder?
Answer: -0.202

Question: And the “glycan array binding signal (z-score)” value [20]?
Answer: -0.218

Question: And the “glycan array binding signal (z-score)” value (Gal(b1-3)GlcNAc)?
Answer: -0.212
